Laboratory results taken from PubChem BioAssay AID624417 (National Center for Advancing Translational Sciences (NCATS), 2012).
Hit rate of the full screen: of about 410,000 compounds, about 6,400 (1.6%) were called active. The shares of active, inactive and inconclusive entries below differ from those in the screen. The call rests on the fitted dose curve; in most records, active means well fitted inhibition curve with a large enough effect; inconclusive means small, poorly fitted or top-dose-only effect; inactive means no such curve, though single readings can be large or run the other way. Potencies of inconclusive entries are left out as doubtful fits.

target: Glucagon-like peptide 1 receptor (Homo sapiens) (UniProt P43220); assay: qHTS of GLP-1 Receptor Inverse Agonists (Inhibition Mode); details: HEK293 GLP-1R CRE-luciferase, luminescence, 24 h, GLP-1R form is constitutively active; series mostly up to 38.3 µM; further: nearly all actives have a fitted effect of over 55% in size
Outline: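 HEK293 cells stably co-expressing constitutively active GLP-1R and a cAMP-responsive luciferase reporter were seeded in DMEM with 10% Nu serum, given compounds after 12 h, and incubated 24 h at 37 deg C. Luminescence was then read.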
Potency means the concentration at half of the fitted maximal effect; tags describe the fitted curve by direction and shape.

Chain of UniProt P43220 (P43220 whole entry, looked up): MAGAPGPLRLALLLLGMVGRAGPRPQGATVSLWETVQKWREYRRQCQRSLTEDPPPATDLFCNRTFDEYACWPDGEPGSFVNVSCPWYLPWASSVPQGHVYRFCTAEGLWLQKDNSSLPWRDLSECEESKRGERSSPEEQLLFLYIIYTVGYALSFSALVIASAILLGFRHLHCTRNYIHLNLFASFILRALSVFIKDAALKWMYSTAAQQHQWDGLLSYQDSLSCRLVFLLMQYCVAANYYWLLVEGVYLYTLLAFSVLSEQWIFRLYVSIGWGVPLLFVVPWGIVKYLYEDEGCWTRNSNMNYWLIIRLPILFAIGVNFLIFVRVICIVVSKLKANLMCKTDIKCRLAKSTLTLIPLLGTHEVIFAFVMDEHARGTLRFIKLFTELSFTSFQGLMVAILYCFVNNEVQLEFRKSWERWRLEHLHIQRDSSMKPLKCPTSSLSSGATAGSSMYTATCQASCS

| SMILES | Potency |
| --- | --- |
| Cn1c(SCC(=O)NCC2CCCO2)ncc(C(=O)Nc2ccccc2)c1=O (centres undefined) | inconclusive [inhibitor, partial curve, poor fit] |
| Cc1ccc(SCC(=O)c2cc(C)c(OC(=S)N(C)C)c(C)c2)cc1 | inconclusive [inhibitor, partial curve, poor fit] |
| CN(C)c1ccc(NC(=O)CN2CCC(C(=O)c3ccc(F)cc3)CC2)cc1 | inconclusive [inhibitor, single point] |
| O=C(OCc1cn([C@H]2C[C@H](c3ccccc3)N(Cc3cccs3)C[C@@H]2O)nn1)c1ccccc1 | inconclusive [inhibitor, single point] |
| O=C(CSc1cccc2cccnc12)Nc1cc(C(=O)O)cc(C(=O)O)c1 | inactive |
| CC12CCC(C(=O)NNc3ccccc3)(OC1=O)C2(C)C (centres undefined) | inconclusive [inhibitor, full curve, poor fit] |
| O=C(Nc1ccccc1)c1cc([N+](=O)[O-])ccc1N1CCCCC1 | inconclusive [inhibitor, single point] |
| O=C(CN1CCOCC1)Nc1ncc(Cc2cccc(Cl)c2Cl)s1 | inconclusive [inhibitor, partial curve] |
| CCCCOc1ccc(C(=S)N2CCC(C(N)=O)CC2)cc1 | inactive |
| Cc1cccc(NC(=O)CSc2nc3c([nH]c4ccccc43)c(=O)n2C)c1 | inactive |
| O=C(NC(Nc1cc(C(F)(F)F)ccc1Cl)C(=O)c1ccccc1)c1ccccc1 (centres undefined) | inconclusive [inhibitor, full curve, poor fit] |
| CCOc1ccc(-n2c(=O)c3c(C)c(C(=O)N(C)C)sc3n(CC(=O)Nc3c(C)cc(C)cc3C)c2=O)cc1 | inactive |
| O=C(COC(=O)C12CC3CC(CC(Br)(C3)C1)C2)Nc1c(F)cccc1F | inconclusive [inhibitor, partial curve, poor fit] |
| CC(C)CC(=O)NC(NC(=S)Nc1ccccc1)C(Cl)(Cl)Cl (centres undefined) | inconclusive [inhibitor, partial curve, poor fit] |
| O=C(CP(=O)(c1ccccc1)c1ccccc1)Nc1cccc(CP(=O)(c2ccccc2)c2ccccc2)c1 | inconclusive [inhibitor, partial curve, poor fit] |
| COc1ccc2c(Sc3ccc(Cl)cc3)c(C(=O)NCCCN3CCCCC3)[nH]c2c1 | inconclusive [inhibitor, partial curve] |
| Cn1c(=O)[nH]c(=O)c2c1nc(N1CCCCC1)n2CCCSc1nnnn1-c1ccccc1 | inconclusive [inhibitor, single point] |
| CCOc1ccc(S(=O)(=O)N2CCN(c3ccccc3)CC2)cc1C(N)=O | inactive |
| O=c1[nH]c(-c2ccccn2)nc2sc(-c3ccccc3)cc12 | inconclusive [inhibitor, full curve, poor fit] |
| COc1ccc(NC(=O)c2cn(-c3ccccc3)nc2SC)cc1 | inconclusive [inhibitor, partial curve, poor fit] |

| SMILES | Potency |
| --- | --- |
| COc1ccc(NS(=O)(=O)c2c(C)cc(C)cc2C)cn1 | inconclusive [inhibitor, partial curve, poor fit] |
| CC1CCCC(C)N1C(=O)CSc1ccc(-c2ccc3c(c2)OCCO3)nn1 (centres undefined) | inconclusive [inhibitor, single point] |
| CCN(CC)CCNC(=O)c1ccc2c(c1NCCO)C(=O)c1ccccc1C2=O | inconclusive [inhibitor, full curve, poor fit] |
| CC#CCOC(=O)c1c(C)nc2sc3c(c2c1N)CCC(O)C3 (centres undefined) | inconclusive [inhibitor, full curve] |
| O=C(Nc1ccnn1C1CCN(Cc2ccc3nonc3c2)CC1)c1cccc(F)c1 | inconclusive [inhibitor, partial curve] |
| COc1ccc2sc(-c3ccccc3OC)c(-c3ccc4c(c3)OCCO4)c2c1 | inconclusive [inhibitor, partial curve, poor fit] |
| CC(C)(C)NC(=O)CN1CCC(NC(=O)C23CC4CC(CC(C4)C2)C3)CC1 | inconclusive [inhibitor, partial curve, poor fit] |
| COc1ccc([C@H]2C[C@H](n3cc(COC(=O)c4ccccc4)nn3)[C@@H](O)CN2Cc2cccs2)cc1 | inconclusive [inhibitor, partial curve] |
| O=C(NCCn1cc(SCc2ccc(F)cc2)c2ccccc21)c1ccccc1F | active: 7.94 µM |
| C/C(=N\NC(=S)NC1CCCCC1)c1ccc(O)cc1 | inconclusive [inhibitor, single point] |
| Cc1cccc(NC(=S)N/N=C2/CCCCc3ccccc32)c1 | inconclusive [inhibitor, partial curve] |
| CN(CC(=O)NCC1CCCCC1)S(=O)(=O)c1ccc(Cl)cc1 | inconclusive [inhibitor, single point] |
| COc1cccc(OCCOc2ccccc2OC(C)C)c1 | inconclusive [inhibitor, single point] |
| CC1(C)Cc2cccc(Oc3cc(NN4CCCCC4)c([N+](=O)[O-])cc3[N+](=O)[O-])c2O1 | inconclusive [inhibitor, partial curve, poor fit] |
| Cc1cccc(NC(=O)C2CCCN2C(=O)Oc2ccccc2)c1 (centres undefined) | inconclusive [inhibitor, single point] |
| CCOC(=O)C(C)Sc1ncnc2c1c(-c1ccccc1)cn2-c1ccc(OC)cc1 (centres undefined) | inconclusive [inhibitor, single point] |
| Cc1oc(-c2ccccc2)nc1CNC(=O)Nc1ccccc1 | inconclusive [inhibitor, partial curve] |
| COC(=O)COc1ccc(C(c2c(C)[nH][nH]c2=O)c2c(C)[nH][nH]c2=O)cc1 | inactive |
| Cc1ccc(-c2nn3c(C)nnc3c3ccccc23)cc1S(=O)(=O)NC(C)c1ccccc1 (centres undefined) | inactive |
